Measured values reported in PubChem BioAssay AID463173 (ICCB-Longwood Screening Facility, Harvard Medical School, 2010).
In all, about 52,000 compounds went through this assay and about 4,300 (8.3%) were called active. Rule as the data show it: active = survival mostly below about 52% (no sharp cut-off); inactive = mostly above about 56%. This is one part of the list.

What follows are molecules tested on DeltatarO mutant (assay: growth inhibition of S. aureus wild type versus tarO mutant, primary screen, teichoic acid synthesis inhibitors, RN4220, OD600 (AID 463173)). Conditions: OD600, 18 h, active compounds read low, screened at 18.75 µg/mL (by protocol).

| SMILES | survival |
| --- | --- |
| CCn1c(CNc2nc(-c3ccccc3)cs2)nnc1SCC(=O)c1ccc(OC)cc1 | inactive: 87% |
| O=C(O)C(CO)NS(=O)(=O)c1ccc(F)cc1 (stereo not given) | inactive: 65% |
| Cc1ccc2c(c1)N(C(=O)N1CCC(C(=O)NCc3cccc(Br)c3)CC1)CCO2 | inactive: 74% |
| COc1ccc(-c2nc(-c3cc4cc(Br)ccc4oc3=O)cs2)cc1 | inactive: 78% |
| COc1ccccc1N1CCN(c2nc3ccccc3n3cnnc23)CC1 | inactive: 73% |
| O=C(CCn1nc(-c2ccccc2)c2ccccc2c1=O)Nc1ccccc1 | inactive: 69% |
| Cc1ccc(-n2nc(CO)c(C(=O)NCc3ccccn3)n2)cc1 | inactive: 89% |
| Cc1ccc2nc(N(CCCN(C)C)C(=O)c3ccco3)sc2c1 | inactive: 82% |
| O=C1Nc2ccccc2Oc2cc(Oc3cccc(Cl)c3)ccc21 | inactive: 46% |
| Cc1cc(C)c(S(=O)(=O)N2CCC(n3c(C(F)(F)F)nc4cccnc43)CC2)c(C)c1 | inactive: 79% |
| Cc1nc2nc(SCC(=O)N(C)Cc3ccccc3)nn2c(C)c1Cc1ccccc1Cl | inactive: 60% |
| Cc1nnc(N2CCCC(C(=O)NCc3ccccc3)C2)c2nn(-c3ccccc3)c(C)c12 (stereo not given) | inactive: 90% |
| CCCCN(C)CCNC(=O)C1CCCN(S(=O)(=O)c2cccc3nsnc23)C1 (stereo not given) | inactive: 96% |
| Cc1c(Cl)cccc1-c1ccc(CNCCCSc2nnnn2C)o1 | inactive: 64% |
| CCc1ccc(S(=O)(=O)c2cn(C)c3cc(N4CCOCC4)c(F)cc3c2=O)cc1 | inactive: 90% |
| CCOC(=O)c1cc(-c2ccccc2)n(CCC(=O)NCc2ccccc2Cl)c1C | inactive: 83% |
| COC(=O)c1sc2cccc(F)c2c1S(=O)(=O)N1CCN(c2cccc(OC)c2)CC1 | inactive: 85% |
| COc1ccc(Nc2nc3ccccc3nc2NS(=O)(=O)c2ccc(C)cc2)c(OC)c1 | inactive: 63% |
| O=C(COc1ccccc1F)OCc1cc(=O)n2nc(C3CCCCC3)sc2n1 | inactive: 92% |
| COc1cccc2cc(S(=O)(=O)c3ccc(F)c(C)c3)c(=O)oc12 | inactive: 90% |
| Cc1nn(-c2ccccc2)c2nc(C3CC3)cc(C(=O)Nc3ccc(F)cc3)c12 | inactive: 105% |
| C=CCN1C(=O)C(=O)/C(=C(\O)c2ccccc2)C1c1ccccc1 (stereo not given) | inactive: 115% |
| O=C(CCn1cnc2onc(-c3ccc(F)cc3)c2c1=O)Nc1ccc(F)c(Cl)c1 | inactive: 94% |

| SMILES | survival |
| --- | --- |
| CCc1c(C)sc2c1CCN(Cc1ccccc1)C2c1ccccc1 (stereo not given) | inactive: 85% |
| O=C(Nc1ccc(OCc2cc(=O)n3c4c(sc3n2)CCCC4)cc1)c1cccc(F)c1 | inactive: 65% |
| Cc1ccc(NC(=O)CN(C)S(=O)(=O)c2ccc3c(c2)n(C)c(=O)c(=O)n3C)cc1F | inactive: 90% |
| Cc1cn2c(=O)cc(COc3cccc(NC(=O)c4ccc(C(C)(C)C)cc4)c3)nc2s1 | inactive: 62% |
| CCOC(=O)C1CCN(CC(=O)Nc2cc(C)c3c(=O)oc4ccccc4c3n2)CC1 | inactive: 128% |
| O=C(Cn1nnc(-c2ccccc2)n1)N1CCCCC1 | inactive: 73% |
| C=CCc1ccccc1OCCSc1nc(-c2cccs2)nc2cc(=O)[nH]n12 | inactive: 87% |
| CCOc1ccc(NC(=O)c2c(C)nn(-c3ccc(F)cc3)c2-n2cccc2)cc1 | inactive: 91% |
| COc1cccc(CNC(=O)CN2C(=O)CCc3cc(S(=O)(=O)N4CCOCC4)ccc32)c1 | inactive: 73% |
| COc1ccc(OC)c2sc(N(Cc3cccnc3)C(C)=O)nc12 | inactive: 85% |
| CN1CCN(C(=O)C2CCN(S(C)(=O)=O)CC2)CC1 | inactive: 83% |
| O=C(NC1CCCC1)c1ccc2c(=O)n(Cc3ccccc3)c(SCc3ccc([N+](=O)[O-])cc3)nc2c1 | inactive: 69% |
| CCc1ccc(CNC(=O)Cn2ccc3cc(S(=O)(=O)N4CCCCCC4)ccc32)cc1 | inactive: 130% |
| CC(C)(C)C(=O)Nc1cccc(C(=O)O)c1 | inactive: 82% |
| CCOc1ccc(-c2nnc(SCC(=O)NC3CCCCC3)nc2-c2ccc(OCC)cc2)cc1 | inactive: 107% |
| COc1ccc2c(c1)Cc1sc(NC(=O)c3ccccc3C)nc1-2 | inactive: 102% |
| Cc1ccc(C)c(N2CCN(c3nc4ccccc4c(=O)n3-c3ccc(Cl)cc3)CC2)c1 | inactive: 63% |
| COc1cccc(CNC(=O)c2ccc(-c3nc(CS(=O)c4ccccc4)c(C)o3)cc2)c1 (stereo not given) | inactive: 92% |
| COCCN(Cc1cc2c(C)cc(C)cc2nc1Cl)C(=O)c1ccco1 | inactive: 92% |
| COc1ccc(NC(=O)Cn2cnc3ccc(S(=O)(=O)N4CCC(C)CC4)cc3c2=O)c(OC)c1 | inactive: 73% |
| COc1cc(C)nc(N(C)S(=O)(=O)c2ccccc2)n1 | inactive: 97% |
| CSc1nnc(COc2cccc(C)c2)n1C | inactive: 77% |
| Cc1ccc(Sc2ccc(N3CCCC(C(=O)Nc4ccc(Br)cc4)C3)nn2)cc1 (stereo not given) | inactive: 50% |

| SMILES | survival |
| --- | --- |
| Cc1nc2ccn(Cc3cccnc3)c(=O)c2cc1C(=O)N1CCN(c2ccccc2F)CC1 | inactive: 69% |
| O=C(NCCc1ccc(Cl)cc1)c1cc(-c2ccccc2)n[nH]1 | inactive: 85% |
| COc1ccc(SCc2cc(=O)c3ccc(C)c(C)c3[nH]2)cc1 | inactive: 77% |
| CCCCOc1ccc(C(=O)NCC(c2ccc(Cl)cc2)N2CCOCC2)cc1 (stereo not given) | inactive: 55% |
| CCN(CC)c1ccc(NC(=O)Cn2ncc3c(C)n(Cc4ccccc4F)c(C)c3c2=O)c(C)c1 | inactive: 79% |
| COc1ccc(/C=C/C(=O)Nc2ccc(C)cc2)cc1 | inactive: 77% |
| CCOC(=O)c1ccc(N2C(=O)c3n[nH]c(-c4ccco4)c3C2c2ccc(OC)cc2OC)cc1 (stereo not given) | inactive: 89% |
| CC1CC(C)N(C(=O)c2cc(-c3ccccc3)on2)C(C)C1 (stereo not given) | inactive: 108% |
| CC1CN(C(=O)Nc2ccc(C(=O)NCc3ccccc3F)cc2)c2ccccc2S1 (stereo not given) | inactive: 88% |
| Fc1ccccc1N1CCN(Cc2nnc(-c3ccc4c(c3)OCO4)o2)CC1 | inactive: 85% |
| Cc1ccccc1OCC(=O)Nc1ccc2oc(-c3ccc(F)cc3)nc2c1 | inactive: 140% |
| Cc1ccc(S(=O)(=O)N2Cc3ccccc3CC2C(=O)N(C)C)cc1 (stereo not given) | inactive: 70% |
| Cc1ccc(C)c(N2C(=O)N(Cc3ccccc3C)c3ccccc3S2(=O)=O)c1 | inactive: 86% |
| O=C(Nc1ccc(Oc2ccccc2)cc1)c1ccc(F)c(S(=O)(=O)N2CCN(c3cccc(Cl)c3)CC2)c1 | inactive: 101% |
| COC(=O)c1nnn(-c2cccc(C)c2)c1N | inactive: 83% |
| CC(C)Oc1ccc(CNC(=O)CN2C(=O)CCn3nc(-c4cn(C)c5ccccc45)cc32)cc1 | inactive: 118% |
| COc1ccc(-n2c(SCc3nc(-c4ccc(C)cc4)no3)nnc2-c2ccccc2)cc1 | inactive: 60% |
| N#C/C(=C/c1ccc(-c2ccc(S(N)(=O)=O)cc2)o1)C(=O)Nc1cc(Cl)ccc1Cl | inactive: 46% |
| CCC(=O)Nc1nnc(CC(=O)N/N=C/c2ccc(O)cc2)s1 | inactive: 73% |
| CCOC(=O)c1ccc(NC(=O)CN(Cc2ccc(C)cc2)S(=O)(=O)c2ccc(C)cc2)cc1 | inactive: 58% |
| CCOc1ccc2[nH]c(=O)c(CNCCCO)cc2c1 | inactive: 95% |
| O=c1c2cnn(-c3ccc(F)cc3)c2ncn1Cc1ccc(F)cc1 | inactive: 106% |
| COc1ccc(Cl)cc1NC(=O)Cn1cc2c(n1)CCC(C)C2 (stereo not given) | inactive: 91% |

| SMILES | survival |
| --- | --- |
| CSc1nnc2[nH]c(=O)cc(C)n12 | inactive: 69% |
| Cc1cc(-c2ccc(S(=O)(=O)Nc3ccc(Br)c(C)c3)s2)on1 | inactive: 88% |
| COc1ccc(-c2cc(C(F)(F)F)nc(S(=O)(=O)CCC(=O)NCc3cccnc3)n2)cc1 | inactive: 98% |
| CSc1nc(NC(C)=O)nc(C)c1Br | inactive: 103% |
| COc1ccc(CNC(=O)C2Cc3cc(S(=O)(=O)N4CCCCCC4)ccc3N2C(C)=O)cc1 (stereo not given) | inactive: 92% |
| O=S(=O)(c1ccc2nc(N3CCN(c4ccccc4)CC3)ccc2c1)N1CCCCC1 | active: 6% |
| COc1ccc(-c2noc(-c3cccc(OC)c3OC)n2)cc1 | active: 8% |
| Cc1cccc(NC(=O)CSc2nc3c(oc4ccccc43)c(=O)n2-c2ccc(F)cc2)c1 | inactive: 72% |
| COc1ccc(Nc2cc(C(=O)NCc3ccccc3)c3ccccc3n2)c(OC)c1 | inactive: 98% |
| CCOc1ccc(-c2cn3c(n2)sc2cc(C(=O)NC4CCCc5ccccc54)ccc23)cc1 (stereo not given) | inactive: 84% |
| Cc1ccc(NC(=O)CC(C)S(=O)(=O)c2ccc3c(c2)NC(=O)CO3)cc1C (stereo not given) | inactive: 85% |
| COc1ccc(NC(=O)c2cn3c4c(ccc(Cl)c4c2=O)OC(C)C3)cc1OC (stereo not given) | inactive: 102% |
| CSc1ncc(C(=O)Nc2ccc(C(C)=O)cc2)c(-c2ccccc2)n1 | inactive: 92% |
| O=C(NCC1CCCO1)c1cccc2ccccc12 (stereo not given) | inactive: 73% |
| CN(C)c1ccc(-c2nnn(CC(=O)N(C)C3CCCCC3)n2)cc1 | inactive: 82% |
| CCOc1ccc2nc(NC(=O)c3cc(=O)c4cc(C)cc(C)c4o3)sc2c1 | inactive: 85% |
| CCOC(=O)C1CCN(CCC(=O)Nc2ccc(OC)cc2)CC1 | inactive: 55% |
| COc1cc2cc(CN(Cc3ccc4c(c3)OCO4)C(=O)NCc3ccccc3)c(=O)[nH]c2cc1OC | inactive: 102% |
| COc1cc(C(=O)N2CC(=O)Nc3ccc(C)cc3C2c2ccc(F)cc2)cc(OC)c1OC (stereo not given) | inactive: 188% |
| Cc1nc(N2CCOCC2)c2c(C(=O)N3CCN(c4cccc(C)c4C)CC3)c(C)oc2n1 | inactive: 144% |
| COc1ccc(CNC(=O)c2ccc(-c3nc(CSc4ccccc4)c(C)o3)cc2)c(OC)c1 | inactive: 85% |
